# From the supplement of paper PMC8728848
# The other results are listed elsewhere or left out.
# B1: Epa10 (protein)
# chain: MNEKIFRYLTLLFLFELARSLPVEDKLNIKKVFEKRAVDFTPFAHYPRPEGCSSPPNSVSVGLHMNLYNYPYLYVKPSTKGMFTNDTNSDADGETDGDSAGGIEGRAGQCWNPEYQDPNFPRFGYKQYGEFGASDNVNGDISWDHNEFTEGCKPVLAALPPGYNYPDEITFSNFTMVLSGYFKPKTSGVYKFELKADDFILFNFGAKNAFECCNREESIDNFGPYVAYAMWPNQADQELEVYLFEDSYYPLRLFYNNRDYHSKFKIGFYPPGQTTITFDFDGYLFMLDDTGNECRDSIRYRTVCDDKVVDDTTYSTRYSTSMVPGGGSDVITIYYIRMKCEEEDCLGQWDPINNVCYSPDDCADDGGYWNGQMCDQSCKLEGGIVNPDTGDCDKSCIESGGFLDENGNCDTTCRDDGGMLVEGQCDYQCKEAGGILVGDHCDTTCVDSGGKLNEDGTCDHSCRDQGGQLDENGECDTSCKDSGGMLIEGECDTSCKDEGGQLDDNNECINHCKDQGGIIDENGNCDTSCKDSGGKLDESGACDTSCRDDGGIIDENGNCNTTCRDDGGIIVGDHCDTSCRDAGGILIEDHCDTTCRDSGGKLNEDGTCDHSCRDQGGQLDENGKCDYSCKNGGGKLDEDGNCDMSCKENGGKLDENGDCDLSCKEDGGKLDGNGDCDYSCKEEGGVIDESGNCNTTCKDSGGQIIDGECNYGCIEVGGVVIDGECDTSCIDSGGILDGDGNCDRSCIESGGVLEDGACNTTCRDSGGQLNVDGTCDTSCRDDGGMLVEGQCDYQCKEAGGILEDGECVFPPTSSSTSETSSTTDQSSLQSDDSSMESSSTPMDSSTIESSSSEIITSESESESVPIASSSSEVMTSESESESIPILTSSSEIPIASSSSEIPVASSSSEIIIPESESESVPVASSSSEIPIASSSSEIPVASSSSEIPVASSSSEIIIPESESESIPIESTSSEAVSSRSESDSSYPTPTPTTTTITTWPNPIQPTTSNSSPIVSSSTETPGIAESSSRISDLESSRRTSILGDDRTRTRTTITSTITEDGQIITITTTVTGFVPEPTGETEGNGSDDENPENPIENNTDENEFLDPEFTDDIPDDPAGPEDNGNGPVNPEQGNDNDPVNLEDSGNNGAVNPEQAPVNDEDNGGNDPVNPEQDNNNGPANPGQDSTNGSGNSDQIDNNPPTPEENAGDGNSNGNDPADPSRRTSILGDERTRASPGGTSQPTGANGNVNGNSPGANVNGGGTGNSNNNNNNNNNNNNGNAPNGGDGSNGDANQGPSRRTSLLGDERTRAGQAAPTGGSSPDNGIAGDTSNNGGAIVSQQVDDGGAGSPRRTSILGDVRSRTTLNGEVLNFEGSGVRRAVAGNLALPLMMVGLVFNL
# Tests used:
# Assay in all cases: glycan array binding signal (z-score within array); higher = stronger binding
# Settings in all cases: glycan notation: IUPAC condensed, linker removed
# [1] = target: Fuc(a1-2)Gal(b1-4)GlcNAc(b1-3)Gal(b1-4)GlcNAc(b1-3)Gal(b1-4)GlcNAc
# Procedure, shortened: (§1)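 Columns mapping to the same glycan were averaged after glycan names were converted to IUPAC-condensed notation. The data come from 3228 arrays in the Consortium for Functional Glycomics database, limited to those with an available protein sequence. Binding is reported as a within-array Z-score averaged across arrays of one protein sequence and across linkers.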
# [2] = target: Fuc(a1-2)Gal(b1-4)GlcNAc(b1-3)GalNAc
# Procedure, shortened: as §1
# [3] = target: Fuc(a1-2)Gal(b1-4)GlcNAc(b1-3)[Fuc(a1-2)Gal(b1-4)GlcNAc(b1-6)]GalNAc
# Procedure, shortened: as §1
# [4] = target: Fuc(a1-2)Gal(b1-4)GlcNAc(b1-3)[Fuc(a1-3)[Gal(b1-4)]GlcNAc(b1-6)]Gal(b1-4)Glc
# Procedure, shortened: as §1
# [5] = target: Fuc(a1-2)Gal(b1-4)GlcNAc(b1-6)GalNAc
# Procedure, shortened: as §1
# [6] = target: Fuc(a1-2)Gal(b1-4)GlcNAc6S
# Procedure, shortened: as §1
# [7] = target: Fuc(a1-2)Gal(b1-4)[Fuc(a1-3)]GlcNAc
# Procedure, shortened: as §1
# [8] = target: Fuc(a1-2)Gal(b1-4)[Fuc(a1-3)]GlcNAc(b1-2)Man(a1-3)[Fuc(a1-2)Gal(b1-4)[Fuc(a1-3)]GlcNAc(b1-2)Man(a1-6)]Man(b1-4)GlcNAc(b1-4)[Fuc(a1-6)]GlcNAc
# Procedure, shortened: as §1
# [9] = target: Fuc(a1-2)Gal(b1-4)[Fuc(a1-3)]GlcNAc(b1-2)[Fuc(a1-2)Gal(b1-4)[Fuc(a1-3)]GlcNAc(b1-4)]Man(a1-3)[Fuc(a1-2)Gal(b1-4)[Fuc(a1-3)]GlcNAc(b1-2)Man(a1-6)]Man(b1-4)GlcNAc(b1-4)GlcNAc
# Procedure, shortened: as §1
# [10] = target: Fuc(a1-2)Gal(b1-4)[Fuc(a1-3)]GlcNAc(b1-3)Gal(b1-4)[Fuc(a1-3)]GlcNAc
# Procedure, shortened: as §1
# [11] = target: Fuc(a1-2)Gal(b1-4)[Fuc(a1-3)]GlcNAc(b1-3)Gal(b1-4)[Fuc(a1-3)]GlcNAc(b1-3)Gal(b1-4)[Fuc(a1-3)]GlcNAc
# Procedure, shortened: as §1
# [12] = target: Fuc(a1-2)Gal(b1-4)[Fuc(a1-3)]GlcNAc(b1-3)GalNAc
# Procedure, shortened: as §1
# [13] = target: Fuc(a1-2)Gal(b1-4)[Fuc(a1-3)]GlcNAc(b1-3)[Neu5Ac(a2-6)Gal(b1-4)GlcNAc(b1-6)]Gal(b1-4)Glc
# Procedure, shortened: as §1
# [14] = target: Fuc(a1-2)Gal3S(b1-4)GlcNAc
# Procedure, shortened: as §1
# [15] = target: Fuc(a1-2)Gal6S(b1-3)GlcNAc
# Procedure, shortened: as §1
# [16] = target: Fuc(a1-2)Gal6S(b1-3)GlcNAc6S
# Procedure, shortened: as §1
# Fuc(a1-2)Gal6S(b1-4)Glc = target: Fuc(a1-2)Gal6S(b1-4)Glc
# Procedure, shortened: as §1
# [17] = target: Fuc(a1-2)Gal6S(b1-4)Glc6S
# Procedure, shortened: as §1
# Fuc(a1-2)[Gal(a1-3)]Gal = target: Fuc(a1-2)[Gal(a1-3)]Gal
# Procedure, shortened: as §1
# [18] = target: Fuc(a1-2)[Gal(a1-3)]Gal(b1-3)GalNAc
# Procedure, shortened: as §1
# [19] = target: Fuc(a1-2)[Gal(a1-3)]Gal(b1-3)GalNAc(b1-3)Gal(a1-4)Gal(b1-4)Glc
# Procedure, shortened: as §1
# [20] = target: Fuc(a1-2)[Gal(a1-3)]Gal(b1-3)GlcNAc
# Procedure, shortened: as §1
# [21] = target: Fuc(a1-2)[Gal(a1-3)]Gal(b1-3)GlcNAc(b1-2)Man(a1-3)[Fuc(a1-2)[Gal(a1-3)]Gal(b1-3)GlcNAc(b1-2)Man(a1-6)]Man(b1-4)GlcNAc(b1-4)GlcNAc
# Procedure, shortened: as §1
# [22] = target: Fuc(a1-2)[Gal(a1-3)]Gal(b1-3)GlcNAc(b1-2)Man(a1-3)[Fuc(a1-2)[Gal(a1-3)]Gal(b1-3)GlcNAc(b1-2)Man(a1-6)]Man(b1-4)GlcNAc(b1-4)[Fuc(a1-6)]GlcNAc
# Procedure, shortened: as §1
# [23] = target: Fuc(a1-2)[Gal(a1-3)]Gal(b1-3)GlcNAc(b1-3)GalNAc
# Procedure, shortened: as §1
# [24] = target: Fuc(a1-2)[Gal(a1-3)]Gal(b1-3)GlcNAc(b1-6)GalNAc
# Procedure, shortened: as §1
# [25] = target: Fuc(a1-2)[Gal(a1-3)]Gal(b1-4)Glc
# Procedure, shortened: as §1
# [26] = target: Fuc(a1-2)[Gal(a1-3)]Gal(b1-4)GlcNAc
# Procedure, shortened: as §1
# [27] = target: Fuc(a1-2)[Gal(a1-3)]Gal(b1-4)GlcNAc(b1-2)Man
# Procedure, shortened: as §1
# [28] = target: Fuc(a1-2)[Gal(a1-3)]Gal(b1-4)GlcNAc(b1-2)Man(a1-3)[Fuc(a1-2)[Gal(a1-3)]Gal(b1-4)GlcNAc(b1-2)Man(a1-6)]Man(b1-4)GlcNAc(b1-4)GlcNAc
# Procedure, shortened: as §1
binder,measurement,setting,value
B1,glycan array binding signal (z-score),[1],-0.22
same,glycan array binding signal (z-score),[2],-0.256
same,glycan array binding signal (z-score),[3],-0.265
same,glycan array binding signal (z-score),[4],-0.284
same,glycan array binding signal (z-score),[5],-0.172
same,glycan array binding signal (z-score),[6],-0.198
same,glycan array binding signal (z-score),[7],-0.367
same,glycan array binding signal (z-score),[8],-0.101
same,glycan array binding signal (z-score),[9],-0.185
same,glycan array binding signal (z-score),[10],-0.228
same,glycan array binding signal (z-score),[11],-0.342
same,glycan array binding signal (z-score),[12],-0.094
same,glycan array binding signal (z-score),[13],-0.219
same,glycan array binding signal (z-score),[14],-0.268
same,glycan array binding signal (z-score),[15],-0.246
same,glycan array binding signal (z-score),[16],-0.129
same,glycan array binding signal (z-score),Fuc(a1-2)Gal6S(b1-4)Glc,-0.269
same,glycan array binding signal (z-score),[17],-0.234
same,glycan array binding signal (z-score),Fuc(a1-2)[Gal(a1-3)]Gal,-0.229
same,glycan array binding signal (z-score),[18],-0.17
same,glycan array binding signal (z-score),[19],-0.256
same,glycan array binding signal (z-score),[20],-0.196
same,glycan array binding signal (z-score),[21],-0.134
same,glycan array binding signal (z-score),[22],-0.19
same,glycan array binding signal (z-score),[23],-0.269
same,glycan array binding signal (z-score),[24],-0.216
same,glycan array binding signal (z-score),[25],-0.272
same,glycan array binding signal (z-score),[26],-0.185
same,glycan array binding signal (z-score),[27],-0.139
same,glycan array binding signal (z-score),[28],-0.112
